Laboratory results as given in the supplement of paper PMC11417369.
This is one part of the list.

What follows are sequences tested on PF3D7_0420300 AP2 domain 1 (GST-tagged) (assay: gcPBM binding intensity (ln(normalized median fluorescence intensity)); higher = stronger DNA binding).
Outline: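 The binding buffer was 1× PBS containing 1% milk, 0.2 mg/ml BSA, 0.5% salmon testes DNA and 0.03% Triton X-100. In it, GST-tagged P. falciparum DNA-binding domains expressed in E. coli were applied for 1 h to an Agilent 4 × 180k array of primer-extended double-stranded 36-bp intergenic genomic probes plus negative controls. Binding intensity, read with Alexa488 anti-GST antibody and a 488 nm scan, is the highest Masliner-normalised natural-log median intensity across replicate spots of either probe orientation.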

Sequence | gcPBM binding intensity (ln)
AAAAAAAATAGACACACACACATACACATAAATATA [CACACA_site7742] | 10.1
AGGGTTACAAGAGGAACACACAAAAAAATAAATAAA [CACACA_site1436] | 9.54
ATTAAATCTATATATACACACATGTTTGGTATATTC [CACACA_site2657] | 9.56
TTTATATTACAATAATATATTAAAAAATAAAATATA [TGCATGCA_negctrl_site18] | 8.73
CGATTACTAATTTTTAGTACATATAATCAATATGTA [XGTACX_site7857] | 9.01
ATCTATTTCTATTGTTGTACTTATTTTTCATTGTTT [XGTACX_site6942] | 10
ATGTAGCCTTACGCTTGTACGAATATCTTAATTTTT [XGTACX_site4331] | 9.31
ATAAAAATATAAACATGTACATAAAAATCTATATAT [XGTACX_site405] | 9.53
TTGCTTATATTTCTAAAATGTAAAAGACACAAAGGT [XGTACX_negctrl_site225] | 9.1
TTCTAATATATGCATACACACAAATGTGAATATACA [CACACA_site2142] | 9.39
AAAAAAAAAAAAAACACACACACACCCAAATATATA [CACACA_site1169] | 10.1
ATATATTTATTTATATGTACATAATATTTTTCTCAG [XGTACX_site800] | 9.27
TTTTTTATTACTTTGTGTACTTACACAGAACCTTAT [XGTACX_site6038] | 9.25
AAAAATGCAATTTAATGTACACATAAGATGTTATTT [XGTACX_site6853] | 9.16
ATATAGGTAATATTTTGTACATATTTTTGGGGTAGT [XGTACX_site5634] | 9.56
AATTCTTTTTTCAACACACACACACCCGAAAATATA [CACACA_site3111] | 10.1
ATATTTTTTGTATGTTGTACATAAAATATACATTTT [XGTACX_site6815] | 9.06
AGATACTTTTTTAAAAGTACAAAAACTTTCGATATA [XGTACX_site959] | 8.77
CATACATACATACATACACACATACATATATATATA [CACACA_site8388] | 9.55
TCTAAAATAGTCCAGAGTACAAGAAACCATAATATA [XGTACX_site5237] | 9.16
TATACATATTTAATATGTACATAATAATACTTATTC [XGTACX_site6939] | 9.16
CCAAATTTATAAAGAACACACACATATATATATATA [CACACA_site7900] | 9.44
AAGCATGTAGAATAATGTACTTGTGATTTTAATATA [XGTACX_site8565] | 9.07
AAAAAAAAAATACAGGTGCAATAAGAAAAAAATGGT | 9.99
TATATTAACAAAATGGTGCAATAATTTCTATATTAT [GTGCAC_site9857] | 9.17
